Source: patent US11613544B2, “Substituted imidazo[1,5-a]pyrazines for modulation of IRE1” (THE REGENTS OF THE UNIVERSITY OF CALIFORNIA, priority 2012, dated 2023)

Legend:
IRE1α* [1] = molecular target: T1, IRE1α* (Homo sapiens, UniProt O75460); conditions: for modulation of IRE1α* RNase activity (XBP1 RNA cleavage): in vitro
WT IRE1α = assay: Autophosphorylation and XBP1 mRNA splicing in Dox-induced T-REx 293 cells expressing WT IRE1α; type: cell-based, human; conditions: 1 hr pre-treatment, Dox 1 μM 8 hrs
Description: Having used a truncated form of IRE1α for in vitro studies, cell-based experiments were used to test whether it would be possible to replicate divergent modulation of the full-length IRE1α transmembrane protein with the two classes of kinase inhibitors.
Cell culture and XBP1 mRNA splicing. INS-1 cells were grown in RPMI, 10% fetal calf serum, 1 mM sodium pyruvate, 10 mM HEPES, Pen/strep, 2 mM glutamine and 50 mM 0-mercaptoethanol. […] The RNA was then extracted using RNeasy Mini Kit (Qiagen), and reverse transcribed using the QuantiTect Reverse Transcription Kit (Qiagen). XBP1 splicing was performed as previously described^7.
Immunoblot analysis. INS-1 cells were incubated with compounds or DMSO for 1 hr, followed by 1 μM Tg for 2 hrs. […] Cells were lysed in RIPA buffer (20 mM Tris-HCl, pH 7.5, 0.1% SDS, 1% Triton X-100, 1% sodium deoxycholate, 150 mM NaCl, 1 mM EDTA, 1% NP-40, complete EDTA-free protease inhibitor (Roche) and phosphatase inhibitor cocktail (Sigma)), and cleared lysates were subjected to SDS-PAGE and transferred to nitrocellulose. Blocking, antibody incubation, and washing were done in PBS or TBS with 0.05% Tween-20 (v/v) and 5% (w/v) non-fat dry milk or BSA, or blocking buffer (Odyssey). […] The antibody binding was detected by using near-infrared-dye-conjugated secondary antibodies and visualized on the LI-COR Odyssey scanner.

IRE1α* [2] = molecular target: T1, IRE1α*; assay: IRE1α* DSS cross-linking to determine oligomer to monomer ratio; conditions: saturating compound (200 μM), DSS 250 μM
IRE1α* [3] = molecular target: T1, IRE1α*; assay: IRE1α* autophosphorylation kinase assay ([γ-32P]ATP, autoradiography); conditions: read-out: IC50 (autophosphorylation); IRE1α* kinase autophosphorylation in vitro
IRE1α* [4] = molecular target: T1, IRE1α*; assay: ICAT footprinting of native cysteine residues; type: binding; set-up: 6-His-tag (N); made in house; host or cells: SF9 insect cells (Bac-to-Bac baculovirus); conditions: 20 μM inhibitor
Description: As Cys645 and Cys715 are located within the ATP-binding cleft of IRE1α, the accessibility of these residues would be expected to be affected by ligands that occupy this site, while Cys572 is a solvent-exposed residue located on the top of the N-terminal lobe of the kinase.
Purified human Ire1α was exchanged into 50 mM Tris (pH 8.0), 50 mM KCl, 5 mM MgCl2, and 0.5 mM TCEP. […] Heavy labeling reagent was added to the protein solutions, and 25 μL aliquots were taken at specified times and quenched with excess DTT. Samples were precipitated with 0.2% sodium deoxycholate and 10% trichloroacetic acid on ice for 10 min. […] The pellets were then resuspended in 30 μL of 200 mM Tris (pH 8.0), 7 M urea, and 2.4 mM light labeling reagent, and incubated in the dark for 30 min. […] Samples (0.3 μmol) were injected onto a Thermo Scientific Dionex Acclaim Pepmap100 NanoLC capillary column (C18, 150 mm length, I.D. 75 μm, 3 μm particle size) connected inline to a Finnigan LCQ mass spectrometer. Peptides of interest were identified by MS/MS data (Sequest), and corresponding XIC peaks were integrated. Alkylation curves were fit using GraphPad Prism software (Binding—Kinetics, Dissociation—One-phase exponential decay).

dP-IRE1α* = molecular target: T2, dP-IRE1α* (Homo sapiens, UniProt O75460); assay: XBP1 RNA minisubstrate RNase assay with dephosphorylated IRE1α*; type: biochemical; conditions: increasing compound
T2 construct: 6-His-tag (N); made in house; host or cells: SF9 insect cells (Bac-to-Bac baculovirus), then λ-PPase (NEB) treatment
T2 sequence (O75460 with tags, fused parts or gaps): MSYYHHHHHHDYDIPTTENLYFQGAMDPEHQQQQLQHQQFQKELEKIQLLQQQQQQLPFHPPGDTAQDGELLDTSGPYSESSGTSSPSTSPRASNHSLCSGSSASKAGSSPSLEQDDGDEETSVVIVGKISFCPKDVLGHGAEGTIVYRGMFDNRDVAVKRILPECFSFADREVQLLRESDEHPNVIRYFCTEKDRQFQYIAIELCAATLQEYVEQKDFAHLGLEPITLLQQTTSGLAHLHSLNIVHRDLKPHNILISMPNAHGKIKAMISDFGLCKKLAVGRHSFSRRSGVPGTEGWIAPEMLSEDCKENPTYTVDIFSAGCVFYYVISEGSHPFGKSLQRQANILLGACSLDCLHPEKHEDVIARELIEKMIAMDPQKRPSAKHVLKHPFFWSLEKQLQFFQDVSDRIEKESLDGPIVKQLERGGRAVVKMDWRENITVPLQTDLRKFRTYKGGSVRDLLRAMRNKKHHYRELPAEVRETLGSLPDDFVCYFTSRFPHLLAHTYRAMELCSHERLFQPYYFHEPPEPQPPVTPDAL
Description: 5'FAM-3'BHQ-labeled XBP1 single stem-loop minisubstrate (5'[NT]3'BHQ) was purchased from Dharmacon. 0.2 μM IRE1α* or dP-IRE1α* were incubated with inhibitors or DMSO for 20 min in cleavage buffer, followed by incubation with 3 μM RNA substrate for 5 min. […] The cleavage products were also resolved by urea PAGE after phenol/chloroform extraction and ethanol precipitation.

Src = Src (Homo sapiens, UniProt P12931); assay: Kinase panel counter-screen; type: biochemical; conditions: tested against 12 kinases of the panel
Sequence of Src (P12931 whole entry, species assumed): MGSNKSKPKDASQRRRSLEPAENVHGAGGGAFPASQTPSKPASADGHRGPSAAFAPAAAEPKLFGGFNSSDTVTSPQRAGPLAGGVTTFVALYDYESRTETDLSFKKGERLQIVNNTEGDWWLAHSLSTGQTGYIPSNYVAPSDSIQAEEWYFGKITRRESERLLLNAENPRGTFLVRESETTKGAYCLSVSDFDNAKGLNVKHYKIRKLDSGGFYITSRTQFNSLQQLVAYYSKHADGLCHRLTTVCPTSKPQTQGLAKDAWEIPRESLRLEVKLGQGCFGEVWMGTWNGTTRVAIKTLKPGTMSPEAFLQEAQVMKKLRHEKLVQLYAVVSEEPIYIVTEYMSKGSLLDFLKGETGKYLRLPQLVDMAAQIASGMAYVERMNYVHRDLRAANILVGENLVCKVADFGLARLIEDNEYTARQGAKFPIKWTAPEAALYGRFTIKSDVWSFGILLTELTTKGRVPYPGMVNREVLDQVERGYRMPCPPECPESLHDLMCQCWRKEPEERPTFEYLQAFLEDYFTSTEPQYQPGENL

Abl = Abl (Homo sapiens, UniProt P00519); assay: Kinase panel counter-screen; type: biochemical; conditions: tested against 12 kinases of the panel
Sequence of Abl (P00519 whole entry, species assumed): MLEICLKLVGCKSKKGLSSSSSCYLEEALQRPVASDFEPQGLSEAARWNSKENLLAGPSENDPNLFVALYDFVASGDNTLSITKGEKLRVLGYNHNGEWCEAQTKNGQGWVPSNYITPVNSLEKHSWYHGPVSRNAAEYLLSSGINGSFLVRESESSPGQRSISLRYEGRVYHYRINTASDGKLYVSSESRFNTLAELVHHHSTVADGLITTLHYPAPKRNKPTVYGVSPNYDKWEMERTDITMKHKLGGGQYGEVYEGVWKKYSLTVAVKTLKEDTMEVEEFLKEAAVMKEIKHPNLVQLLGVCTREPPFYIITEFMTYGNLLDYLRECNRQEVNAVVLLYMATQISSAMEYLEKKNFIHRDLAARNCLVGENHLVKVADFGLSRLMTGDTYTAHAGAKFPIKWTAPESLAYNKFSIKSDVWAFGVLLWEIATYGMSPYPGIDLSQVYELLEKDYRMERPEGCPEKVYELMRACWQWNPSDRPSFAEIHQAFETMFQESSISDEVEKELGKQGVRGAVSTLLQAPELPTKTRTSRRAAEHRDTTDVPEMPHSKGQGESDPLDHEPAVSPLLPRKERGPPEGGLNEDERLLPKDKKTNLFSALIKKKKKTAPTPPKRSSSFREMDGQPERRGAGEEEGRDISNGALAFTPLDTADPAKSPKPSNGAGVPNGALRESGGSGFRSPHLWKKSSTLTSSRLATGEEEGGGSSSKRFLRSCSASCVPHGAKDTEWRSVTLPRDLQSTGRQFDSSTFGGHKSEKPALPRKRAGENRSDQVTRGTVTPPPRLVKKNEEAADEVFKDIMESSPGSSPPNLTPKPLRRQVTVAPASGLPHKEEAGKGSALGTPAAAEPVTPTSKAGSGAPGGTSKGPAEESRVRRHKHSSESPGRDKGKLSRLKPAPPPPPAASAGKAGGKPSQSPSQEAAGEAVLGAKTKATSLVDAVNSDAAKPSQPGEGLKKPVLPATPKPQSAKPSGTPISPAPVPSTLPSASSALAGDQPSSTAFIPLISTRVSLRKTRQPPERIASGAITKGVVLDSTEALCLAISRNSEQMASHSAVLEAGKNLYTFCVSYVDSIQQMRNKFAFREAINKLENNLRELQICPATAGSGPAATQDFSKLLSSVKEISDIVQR

[5] = INS-1, thapsigargin-induced ER stress

T1 sequence (O75460 with tags, fused parts or gaps): as the sequence (O75460 with tags, fused parts or gaps) above

CNc1nccn2c(C(C)C)nc(-c3ccc(NC(=O)Nc4cccc(C(F)(F)F)c4)c4ccccc34)c12 [GP146(NMe), 1-(4-(3-isopropyl-8-(methylamino)imidazo[1,5-a]pyrazin-1-yl)naphthalen-1-yl)-3-(3-(trifluoromethyl)phenyl)urea]
XBP1 mRNA splicing (RNase of endogenous IRE1α) (endogenous IRE1α; [5]): does not block the splicing of XBP1 mRNA
modulation of IRE1α* RNase activity (XBP1 RNA cleavage) (IRE1α* [1]): markedly diminished ability to inhibit the RNase activity
autophosphorylation and XBP1 mRNA splicing (WT IRE1α): does not affect either of these parameters

c1cc(Nc2cc(C3CC3)[nH]n2)nc(Nc2ccc3nc[nH]c3c2)n1 [APY29, reference compound]
XBP1 mRNA splicing (RNase of endogenous IRE1α) (endogenous IRE1α; [5]): opposing dose-dependent effects
modulation of IRE1α* RNase activity (XBP1 RNA cleavage) (IRE1α* [1]): acting as an activator
RNase competition: effect on IRE1α* RNase inhibition (IRE1α* [1]; increasing concentrations under a fixed concentration of KIRA3 (GP146)): progressively reverse IRE1α* RNase inhibition
RNase competition: effect on IRE1α* RNase inhibition (IRE1α* [1]; under fixed STF-083010): cannot rescue direct inhibition
IRE1α* oligomer/monomer ratio (oligomerization state) (IRE1α* [2]): further enhances
IC50 (IRE1α* [3]): 280 nM
accessibility (alkylation rate) of Cys715 (IRE1α* [4]): slowing the rate of alkylation
accessibility of Cys572 (IRE1α* [4]): no detectable difference
accessibility of Cys645 to alkylating agents (IRE1α* [4]): highly shielded from alkylating agents
restored RNase activity of dP-IRE1α*, plateau (dP-IRE1α*): ~60 % of the levels of IRE1α*

CC(C)c1nc(-c2ccc(NC(=O)Nc3cccc(C(F)(F)F)c3)cc2)c2c(N)nccn12 [KIRA2, 1-(4-(8-amino-3-isopropylimidazo[1,5-a]pyrazin-1-yl)phenyl)-3-(3-(trifluoromethyl)phenyl)urea]
modulation of IRE1α* RNase activity (XBP1 RNA cleavage) (IRE1α* [1]): significant increase in overall potency

CC(C)c1nc(-c2ccc(NC(=O)Nc3cccc(C(F)(F)F)c3)c3ccccc23)c2c(N)nccn12 [KIRA3, 1-(4-(8-amino-3-isopropylimidazo[1,5-a]pyrazin-1-yl)naphthalen-1-yl)-3-(3-(trifluoromethyl)phenyl)urea]
off-target kinase inhibition (Src): off-target inhibition observed
XBP1 mRNA splicing (RNase of endogenous IRE1α) (endogenous IRE1α; [5]): opposing dose-dependent effects
off-target kinase inhibition (Abl): off-target inhibition observed
autophosphorylation and XBP1 mRNA splicing (WT IRE1α): inhibits autophosphorylation and XBP1 mRNA splicing

CC(C)c1nc(-c2ccc(NC(=O)c3cccc(C(F)(F)F)c3)c3ccccc23)c2c(N)nccn12 [GP146(Am), N-(4-(8-amino-3-isopropylimidazo[1,5-a]pyrazin-1-yl)naphthalen-1-yl)-3-(trifluoromethyl)benzamide]
modulation of IRE1α* RNase activity (XBP1 RNA cleavage) (IRE1α* [1]): markedly diminished ability to inhibit the RNase activity

O=S(=O)(N=Cc1c(O)ccc2ccccc12)c1cccs1 [STF-083010, reference compound]
IRE1α autophosphorylation (kinase activity) (endogenous IRE1α; [5]): does not prevent IRE1α auto-phosphorylation
XBP1 mRNA splicing (RNase of endogenous IRE1α) (endogenous IRE1α; [5]): inhibits XBP1 splicing in a dose-dependent manner
endogenous IRE1α auto-phosphorylation (endogenous IRE1α; in vivo (cells), FIG. 30D): does not inhibit IRE1α auto-phosphorylation

Read-outs that look alike come from different tables or passages of the source.
